# The supplement of paper PMC8728848
# Some of the results follow.
# Experiments:
# Test in all cases: glycan array binding signal (z-score within array); higher = stronger binding
# Conditions in all cases: glycan notation: IUPAC condensed, linker removed
# [1] = target: Gal(b1-4)GlcNAc(b1-3)Gal(b1-4)GlcNAc(b1-3)Gal(b1-4)GlcNAc(b1-3)Gal(b1-4)GlcNAc(b1-2)Man(a1-3)[Gal(b1-4)GlcNAc(b1-3)Gal(b1-4)GlcNAc(b1-3)Gal(b1-4)GlcNAc(b1-3)Gal(b1-4)GlcNAc(b1-2)Man(a1-6)]Man(b1-4)GlcNAc(b1-4)GlcNAc
# In short: (§1)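 Columns mapping to the same glycan were averaged after glycan names were converted to IUPAC-condensed notation. The data come from 3228 arrays in the Consortium for Functional Glycomics database, limited to those with an available protein sequence. Binding is reported as a within-array Z-score averaged across arrays of one protein sequence and across linkers.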
# [2] = target: Gal(b1-4)GlcNAc(b1-3)Gal(b1-4)GlcNAc(b1-3)Gal(b1-4)GlcNAc(b1-3)Gal(b1-4)GlcNAc(b1-2)Man(a1-3)[Gal(b1-4)GlcNAc(b1-3)Gal(b1-4)GlcNAc(b1-3)Gal(b1-4)GlcNAc(b1-3)Gal(b1-4)GlcNAc(b1-2)Man(a1-6)]Man(b1-4)GlcNAc(b1-4)[Fuc(a1-6)]GlcNAc
# In short: as §1
# [3] = target: Gal(b1-4)GlcNAc(b1-3)Gal(b1-4)GlcNAc(b1-3)Gal(b1-4)GlcNAc(b1-3)Gal(b1-4)GlcNAc(b1-2)[Gal(b1-4)GlcNAc(b1-3)Gal(b1-4)GlcNAc(b1-3)Gal(b1-4)GlcNAc(b1-3)Gal(b1-4)GlcNAc(b1-6)]Man(a1-6)[Gal(b1-4)GlcNAc(b1-3)Gal(b1-4)GlcNAc(b1-3)Gal(b1-4)GlcNAc(b1-3)Gal(b1-4)GlcNAc(b1-2)Man(a1-3)]Man(b1-4)GlcNAc(b1-4)[Fuc(a1-6)]GlcNAc
# In short: as §1
# [4] = target: Gal(b1-4)GlcNAc(b1-3)Gal(b1-4)GlcNAc(b1-3)Gal(b1-4)GlcNAc(b1-3)Gal(b1-4)GlcNAc(b1-3)Gal(b1-4)GlcNAc(b1-2)Man(a1-3)[Gal(b1-4)GlcNAc(b1-3)Gal(b1-4)GlcNAc(b1-3)Gal(b1-4)GlcNAc(b1-3)Gal(b1-4)GlcNAc(b1-3)Gal(b1-4)GlcNAc(b1-2)Man(a1-6)]Man(b1-4)GlcNAc(b1-4)GlcNAc
# In short: as §1
# [5] = target: Gal(b1-4)GlcNAc(b1-3)Gal(b1-4)GlcNAc(b1-3)Gal(b1-4)GlcNAc(b1-3)Gal(b1-4)GlcNAc(b1-3)Gal(b1-4)GlcNAc(b1-2)Man(a1-3)[Gal(b1-4)GlcNAc(b1-3)Gal(b1-4)GlcNAc(b1-3)Gal(b1-4)GlcNAc(b1-3)Gal(b1-4)GlcNAc(b1-3)Gal(b1-4)GlcNAc(b1-2)Man(a1-6)]Man(b1-4)GlcNAc(b1-4)[Fuc(a1-6)]GlcNAc
# In short: as §1
# [6] = target: Gal(b1-4)GlcNAc(b1-3)Gal(b1-4)GlcNAc(b1-3)Gal(b1-4)GlcNAc(b1-3)Gal(b1-4)GlcNAc(b1-3)Gal(b1-4)GlcNAc(b1-2)[Gal(b1-4)GlcNAc(b1-3)Gal(b1-4)GlcNAc(b1-3)Gal(b1-4)GlcNAc(b1-3)Gal(b1-4)GlcNAc(b1-3)Gal(b1-4)GlcNAc(b1-6)]Man(a1-6)[Gal(b1-4)GlcNAc(b1-3)Gal(b1-4)GlcNAc(b1-3)Gal(b1-4)GlcNAc(b1-3)Gal(b1-4)GlcNAc(b1-3)Gal(b1-4)GlcNAc(b1-2)Man(a1-3)]Man(b1-4)GlcNAc(b1-4)[Fuc(a1-6)]GlcNAc
# In short: as §1
# [7] = target: Gal(b1-4)GlcNAc(b1-3)Gal(b1-4)GlcNAc(b1-3)Gal(b1-4)GlcNAc(b1-3)Gal(b1-4)GlcNAc(b1-3)Gal(b1-4)GlcNAc(b1-3)Gal(b1-4)GlcNAc(b1-2)Man(a1-3)[Gal(b1-4)GlcNAc(b1-3)Gal(b1-4)GlcNAc(b1-3)Gal(b1-4)GlcNAc(b1-3)Gal(b1-4)GlcNAc(b1-3)Gal(b1-4)GlcNAc(b1-3)Gal(b1-4)GlcNAc(b1-2)Man(a1-6)]Man(b1-4)GlcNAc(b1-4)GlcNAc
# In short: as §1
# [8] = target: Gal(b1-4)GlcNAc(b1-3)Gal(b1-4)GlcNAc(b1-3)GalNAc
# In short: as §1
# [9] = target: Gal(b1-4)GlcNAc(b1-3)Gal(b1-4)GlcNAc(b1-3)[Gal(b1-4)GlcNAc(b1-3)Gal(b1-4)GlcNAc(b1-6)]GalNAc
# In short: as §1
# [10] = target: Gal(b1-4)GlcNAc(b1-3)Gal(b1-4)GlcNAc(b1-6)[Gal(b1-3)]GalNAc
# In short: as §1
# [11] = target: Gal(b1-4)GlcNAc(b1-3)Gal(b1-4)[Fuc(a1-3)]GlcNAc(b1-3)Gal(b1-4)[Fuc(a1-3)]GlcNAc
# In short: as §1
# [12] = target: Gal(b1-4)GlcNAc(b1-3)GalNAc
# In short: as §1
# [13] = target: Gal(b1-4)GlcNAc(b1-3)[Fuc(a1-3)GlcNAc(b1-6)]Gal(b1-4)Glc
# In short: as §1
# [14] = target: Gal(b1-4)GlcNAc(b1-3)[Gal(b1-4)GlcNAc(b1-6)]Gal(b1-4)GlcNAc
# In short: as §1
# [15] = target: Gal(b1-4)GlcNAc(b1-3)[GlcNAc(b1-6)]Gal(b1-4)GlcNAc
# In short: as §1
# [16] = target: Gal(b1-4)GlcNAc(b1-6)Gal(b1-4)GlcNAc
# In short: as §1
# [17] = target: Gal(b1-4)GlcNAc(b1-6)GalNAc
# In short: as §1
# [18] = target: Gal(b1-4)GlcNAc(b1-6)[Gal(b1-3)]GalNAc
# In short: as §1
# [19] = target: Gal(b1-4)GlcNAc(b1-6)[Gal(b1-4)GlcNAc(b1-3)]GalNAc
# In short: as §1
# Gal(b1-4)GlcNAc6P = target: Gal(b1-4)GlcNAc6P
# In short: as §1
# Gal(b1-6)Gal = target: Gal(b1-6)Gal
# In short: as §1
# Gal3S(b1-3)GalNAc = target: Gal3S(b1-3)GalNAc
# In short: as §1
# Gal3S(b1-3)GlcNAc = target: Gal3S(b1-3)GlcNAc
# In short: as §1
binder,measurement,setting,value
"AFL5 (Aspergillus fumigatus), Q4WB00 (protein) MDNFMEMTKKLGHQPELLRLRALDATYDDALEGKLVVAPLDMSEPGKKILDSGTADGTWLRNVRSKQSVPHDYYGSDVEGELFPKDPDGITYFAHSFKDPWPQQYLGFFDLVHIRGSLAGSAPEGPAPVIQNLTTLLKPGGWVQLMEMNAFSPPPNGPAMTDFAKMASEMFTGIGVGDFANNNKSMLEDAGLKNVQEKRVIVNLGKKAKPELHDQSIHGVTGPIVPLTSVARTVKSSFTGEQLDALPARVKEELETEGGQVEMIIAFGQKA",glycan array binding signal (z-score),[1],0.075
same,glycan array binding signal (z-score),[2],1.69
same,glycan array binding signal (z-score),[3],0.478
same,glycan array binding signal (z-score),[4],0.224
same,glycan array binding signal (z-score),[5],1.46
same,glycan array binding signal (z-score),[6],1.6
same,glycan array binding signal (z-score),[7],0.768
same,glycan array binding signal (z-score),[8],0.35
same,glycan array binding signal (z-score),[9],0.197
same,glycan array binding signal (z-score),[10],0
same,glycan array binding signal (z-score),[11],-0.606
same,glycan array binding signal (z-score),[12],-0.561
same,glycan array binding signal (z-score),[13],0.323
same,glycan array binding signal (z-score),[14],-0.342
same,glycan array binding signal (z-score),[15],-0.725
same,glycan array binding signal (z-score),[16],-0.403
same,glycan array binding signal (z-score),[17],0.388
same,glycan array binding signal (z-score),[18],0.219
same,glycan array binding signal (z-score),[19],-0.27
same,glycan array binding signal (z-score),Gal(b1-4)GlcNAc6P,-0.243
same,glycan array binding signal (z-score),Gal(b1-6)Gal,-0.347
same,glycan array binding signal (z-score),Gal3S(b1-3)GalNAc,0.664
same,glycan array binding signal (z-score),Gal3S(b1-3)GlcNAc,-0.291
